Test results reported in PubChem BioAssay AID686979 (National Center for Advancing Translational Sciences (NCATS), 2013).
Out of some 420,000 compounds screened, about 50,000 (12%) were called active. This list was built around the results that the source calls inconclusive (neither active nor inactive); the mix of calls is not that of the screen. Calls come from the whole dose curve; as a rule, active = well fitted inhibition curve with a large enough effect; inconclusive = small, poorly fitted or top-dose-only effect; inactive = flat fitted curve, though single readings scatter. No potency is given beside an inconclusive call; the fits are too rough.

experiment: qHTS for Inhibitors of human tyrosyl-DNA phosphodiesterase 1 (TDP1): qHTS in cells in presence of CPT; settings: chicken DT40 Tdp1-/-;hTDP1 cells + 20 nM CPT, ATP luminescence, 48 h; activity change, negative = growth inhibition: at 46.2 µM (top of the series) unless noted; note: nearly all actives have a fitted effect of over 55% in size
Outline: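 Chicken DT40 Tdp1-/- cells complemented with human TDP1, 400 cells/well, exposed to compounds plus 20 nM camptothecin for at least 48 h at 37 C; viability read as ATP content by CellTiter-Glo luminescence.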
% is set by controls: 0 for no effect and ±100 for the full control effect; potency is the fitted concentration of half-maximal effect; tags give direction and shape of the fitted curve.

Row | Structure (SMILES) | activity change, negative = growth inhibition | Potency
1 | CCC(C)[C@H](NS(=O)(=O)c1ccc(C)cc1)C(=O)N1CCC(C(=O)N2CCC(C(=O)OC)CC2)CC1 (stereo partly specified) | inactive: -6.67% | 
2 | COc1ccc(C2=NOC(C(=O)NC(C)C)C2)cc1 (stereo unspecified) | inactive: -10.2% | 
3 | CSCCC(NS(=O)(=O)c1ccc2c(c1)oc(=O)n2C)C(=O)Nc1ccc(F)c(Cl)c1 (stereo unspecified) | inactive: -20.1% | 
4 | COC(=O)[C@]1(CC(C)C)N[C@H](c2ccc(-c3ccccc3)cc2)[C@@H]2C(=O)N(C)C(=O)[C@@H]21 |  | inconclusive [inhibitor, single point]
5 | O=C(O)c1cc(-c2ccc(/C=C3\NC(=O)N(c4ccccc4)C3=O)o2)ccc1Cl |  | inconclusive [inhibitor, full curve]
6 | O=C(CC1C[C@H](C(=O)N2CCOCC2)[C@@]2(CCC3CCCC3)c3[nH]c4ccccc4c3CCN2C1=O)NCc1cccc(C(F)(F)F)c1 (stereo partly specified) |  | active: 23.1 µM
7 | Cc1cc(C)n(-c2cc(N3CCN(C(=O)c4ccccc4C)CC3)ccc2[N+](=O)[O-])n1 |  | inconclusive [inhibitor, single point]
8 | O=S(=O)(NCc1ccccc1)c1ccc(S(=O)(=O)N2CCCC2)cc1 | inactive: -21.9% | 
9 | NC(=O)c1ccc[n+]([C@H]2O[C@@H](COP(=O)([O-])OP(=O)(O)OC[C@H]3O[C@@H](n4cnc5c(N)ncnc54)[C@H](O)[C@@H]3O)[C@H](O)[C@@H]2O)c1 |  | inconclusive [inhibitor, partial curve, poor fit]
10 | COc1ccc(-c2nsc(SCC(=O)NCC3CCCO3)n2)cc1 (stereo unspecified) |  | inconclusive [inhibitor, single point]
11 | COCCNC(=O)c1cc(-c2cccnc2)nc2ccc(Br)cc12 |  | inconclusive [inhibitor, single point]
12 | Cc1c(C(=O)Nc2ccccc2C(=O)N2CCOCC2)cccc1[N+](=O)[O-] | inactive: -0.911% | 
13 | CCOC(=O)c1c(NC(=O)CSc2cccc[n+]2[O-])sc(C(=O)Nc2ccccc2)c1C |  | inconclusive [inhibitor, single point]
14 | Cc1ccc(-c2nc3ccc(C)cn3c2Cc2ccccn2)cc1 |  | inconclusive [inhibitor, single point]
15 | CC(C)C[C@@H](CN)NC(=O)c1nc[nH]c1C(=O)N[C@@H](CC(C)C)C(=O)CNC[C@H](C)NC(=O)c1nc[nH]c1C(=O)N[C@@H](CC(=O)O)C(=O)O | inactive: -11.8% | 
16 | COc1cc(Cl)c(C)cc1NC(=O)CN1CCN(C(=O)c2cccs2)CC1 |  | inconclusive [inhibitor, single point]
17 | CC(C)(C)c1ccc(NC(=O)Cn2cnc3cc([N+](=O)[O-])ccc3c2=O)cc1 |  | inconclusive [inhibitor, partial curve]
18 | O=C(O)[C@H]1/C(=C/CO)O[C@@H]2CC(=O)N21 | inactive: -0.573% | 
19 | CC1Cc2ccccc2N1C(=O)C1CCCN(S(=O)(=O)c2cccc3nsnc23)C1 (stereo unspecified) |  | inconclusive [inhibitor, single point]
20 | CC(C)CCOc1ccc(C2(C)NC(=O)N(CN3CCOCC3)C2=O)cc1 (stereo unspecified) |  | inconclusive [inhibitor, single point]
21 | CCCc1[nH]nc2c1C(c1ccoc1)C(C#N)=C(N)O2 (stereo unspecified) |  | inconclusive [inhibitor, single point]

Row | Structure (SMILES) | activity change, negative = growth inhibition | Potency
22 | O=C(Cn1ncc2c([nH]c3ccccc32)c1=O)NCC1CCN(Cc2ccccc2F)CC1 | inactive: -16.8% | 
23 | CCc1csc(CCNC(=O)C2CCC(=O)N(CCc3cccc(F)c3)C2)n1 (stereo unspecified) | inactive: -29.3% | 
24 | COc1ccc2cccc(N3CCN(CCNC(=O)c4ccc(F)cc4)CC3)c2c1 |  | active: 18.8 µM
25 | CC(=O)Nc1ccc(SCC(=O)c2cc(C)n(-c3ccccc3F)c2C)cc1 |  | inconclusive [inhibitor, single point]
26 | CCOc1ccc(NS(=O)(=O)c2ccc(C(=O)NCCCN3CCCC3=O)cc2)cc1 |  | inconclusive [inhibitor, single point]
27 | C=CCN1N=C(c2ccc(NC(=O)c3ccccc3)cc2)CSC1=O | inconclusive: -23.3% [inhibitor] | 
28 | Cc1sc(-n2c(C)cc(/C=N/n3cnnc3)c2C)c(C#N)c1C |  | active: 16.4 µM
29 | O=C(CNC(=O)c1ccc(Br)o1)Nc1ccc(N2CCCCCC2)cc1 |  | inconclusive [inhibitor, partial curve]
30 | CC(C)c1ccc(NC(=O)CN(Cc2ccccc2)S(C)(=O)=O)cc1 |  | inconclusive [inhibitor, partial curve]
31 | Cc1csc(NC(=O)C(C)Oc2ccc(Cl)cc2C)n1 (stereo unspecified) |  | inconclusive [inhibitor, partial curve]
32 | COc1ccc(S(=O)(=O)N2CCCCC2)cc1NC(=O)CN(Cc1ccco1)Cc1ccco1 |  | inconclusive [inhibitor, single point]
33 | CC1=Nc2ccccc2/C1=C\c1nc(-c2ccc(F)cc2)oc1O | inconclusive: -31.6% [inhibitor] | 
34 | COc1ccc2cc(Br)ccc2c1CC(=O)NC1CC(C)(C)NC(C)(C)C1 |  | inconclusive [inhibitor, single point]
35 | COc1ccc(NC(=O)c2cc(-c3cc(F)ccc3OC)n[nH]2)c(OC)c1 |  | active: 25.9 µM
36 | CC(=O)N1CCN(S(=O)(=O)c2cccc(C(=O)NNC(=O)COc3c(C)cccc3C)c2)CC1 | inactive: 6.59% | 
37 | COc1cc2cc(CN(CCc3cccc(C)c3)C(=S)NCCCN3CCOCC3)c(=O)[nH]c2cc1OC |  | inconclusive [inhibitor, single point]
38 | CC(=O)N1CCN(c2nc3ccc([N+](=O)[O-])cc3s2)CC1 |  | inconclusive [inhibitor, single point]
39 | CCOC(=O)c1ccc(NC(=O)CCCc2nc(-c3cc(OC)c(OC)c(OC)c3)no2)cc1 |  | inconclusive [inhibitor, single point]
40 | Cc1sc2nc(SCC(=O)NCCOCCO)nc(N)c2c1C | inactive: -1.59% | 
41 | Cc1nc2ccc(NS(=O)(=O)c3c(C)c(C)cc(C)c3C)cc2s1 |  | inconclusive [inhibitor, single point]
